The campaign covered roughly 310,000 compounds. About 2,200 (0.71%) showed an effect of 50% or more. The effect is printed as a negative number. The list shows a part of the results.

In this assay the target is human ether-à-go-go-related gene (hERG) potassium channel (human, UniProt Q12809). In words: primary screen, population patch clamp on CHO cells stably expressing hERG.
Chain of human ether-à-go-go-related gene (hERG) potassium channel (Q12809 whole entry, looked up): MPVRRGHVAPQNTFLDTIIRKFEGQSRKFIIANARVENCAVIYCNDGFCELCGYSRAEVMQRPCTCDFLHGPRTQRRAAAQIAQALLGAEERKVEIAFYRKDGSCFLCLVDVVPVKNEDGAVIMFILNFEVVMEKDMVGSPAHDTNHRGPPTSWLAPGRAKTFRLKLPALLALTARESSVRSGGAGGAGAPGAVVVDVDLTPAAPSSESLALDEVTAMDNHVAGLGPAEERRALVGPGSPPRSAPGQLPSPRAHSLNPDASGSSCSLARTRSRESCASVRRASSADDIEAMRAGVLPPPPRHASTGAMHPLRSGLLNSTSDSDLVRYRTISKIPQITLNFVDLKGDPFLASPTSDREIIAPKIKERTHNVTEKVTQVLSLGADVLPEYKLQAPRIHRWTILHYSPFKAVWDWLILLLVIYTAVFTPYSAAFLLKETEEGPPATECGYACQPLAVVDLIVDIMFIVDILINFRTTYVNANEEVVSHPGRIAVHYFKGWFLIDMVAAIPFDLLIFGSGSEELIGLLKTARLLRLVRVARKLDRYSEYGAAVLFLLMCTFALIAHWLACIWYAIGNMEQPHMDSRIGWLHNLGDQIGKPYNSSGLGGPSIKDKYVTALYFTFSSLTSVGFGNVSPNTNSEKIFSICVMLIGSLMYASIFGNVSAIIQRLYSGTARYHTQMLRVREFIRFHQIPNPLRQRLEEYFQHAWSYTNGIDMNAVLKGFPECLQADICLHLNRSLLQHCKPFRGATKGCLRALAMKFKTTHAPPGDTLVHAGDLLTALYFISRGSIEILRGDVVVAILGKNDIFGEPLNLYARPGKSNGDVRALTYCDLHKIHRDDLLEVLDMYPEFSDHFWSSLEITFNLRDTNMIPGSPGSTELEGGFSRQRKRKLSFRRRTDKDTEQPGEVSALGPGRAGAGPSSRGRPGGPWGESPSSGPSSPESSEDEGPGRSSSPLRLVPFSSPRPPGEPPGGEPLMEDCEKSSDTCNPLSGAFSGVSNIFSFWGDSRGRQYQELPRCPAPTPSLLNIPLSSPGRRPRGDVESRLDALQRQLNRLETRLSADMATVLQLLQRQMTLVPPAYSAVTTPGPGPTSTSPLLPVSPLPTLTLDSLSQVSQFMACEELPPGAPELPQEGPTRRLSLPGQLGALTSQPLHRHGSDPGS
Turning to `COc1ccc(Nc2ccc(Cl)nn2)cc1`, the “hERG current change (%, negative = inhibition) at 1uM” value came to 15%.
In the case of `O=C(CCN1C(=O)/C(=C\c2ccccc2F)SC1=S)N1CCCCC1` it was 10.1%; in that of `O=C(Nc1ccc2nc(-c3ccc(Br)o3)[nH]c2c1)c1ccco1`, 1.3%.
The value for `O=C(CSc1nc2ccccc2c(=O)n1CCCN1CCOCC1)N1CCN(c2ccccc2)CC1` was -6.61%; that for `CCOc1ccc2c(c1)/C(=C(\C(Cl)=C(Cl)Cl)[N+](=O)[O-])N2` was 11%.
For `CCOc1ccc(-n2c(CCc3ccccc3)n[nH]c2=S)cc1`, the “hERG current change (%, negative = inhibition) at 1uM” value came out at 6.33%.
Consider `CCCC12CN3CC(C)(CN(C1)C3c1ccco1)C2=O` (stereo not drawn), for which the “hERG current change (%, negative = inhibition) at 1uM” value is reported as 6.16%.
In the case of `CC(C)Cn1cnc2c1c(=O)n(C)c(=O)n2C` it was 19.7%; in that of `Fc1ccc(C(c2nnnn2Cc2ccccc2)N2CCSCC2)cc1` (stereo not drawn), 5.08%; in that of `C=CCN1c2ccccc2C(=O)CS1(=O)=O`, 13.3%.
For `COc1cc2cc(C(=O)O)[nH]c2c(OC)c1OC`, the “hERG current change (%, negative = inhibition) at 1uM” value came out at 11.8%.
On to `CCOc1ccc(N(CC(=O)Nc2ccc(C)c(F)c2)C2=NC3CS(=O)(=O)CC3S2)cc1` (stereo not drawn), for which the “hERG current change (%, negative = inhibition) at 1uM” value stood at 9.65%.
For `COc1ccc(C(=O)Nc2ccc(NC(C)=O)cc2)cc1S(=O)(=O)N1CCCC1`, the “hERG current change (%, negative = inhibition) at 1uM” value was 16.9%.
In the case of `O=C(c1ncc[nH]1)c1cccs1`, the “hERG current change (%, negative = inhibition) at 1uM” value stood at 11.5%.
The value for `CCn1cc(C(=O)Nc2ccc(Cl)cc2Cl)cn1` was 2.6%; that for `O=C(CCCOc1ccccc1)Nc1ccc(Cl)cn1` was 0.0557%; that for `COc1ccccc1CCNC(=O)C1CCC(=O)N(C2CC2)C1` (stereo not drawn) was 13.4%.
Consider `O=C(c1ccccc1-c1ccccc1)N1CCOCC1`, for which the “hERG current change (%, negative = inhibition) at 1uM” value came to 18.7%.
For `N#Cc1c(N)nc2c(c1-c1ccc(Br)s1)CCCC2`, the “hERG current change (%, negative = inhibition) at 1uM” value was -0.409%.
The value for `CCc1ccc(NC(=O)COC(=O)CCCC2=NS(=O)(=O)c3ccccc3N2)cc1` was 4.63%.
Consider `O=C(Nc1ccccc1)C1=C[C@H](c2csc3ccccc23)C[C@H](OCCCCO)O1`, for which the “hERG current change (%, negative = inhibition) at 1uM” value was 15.7%.
In the case of `CCOc1ccc(S(=O)(=O)N/N=C(\C)c2ccc3c(c2)OCO3)cc1` it was 14.8%.
The value for `CCn1c(SCC(=O)Nc2oc(-c3ccccc3)c(-c3ccccc3)c2C#N)nnc1-c1ccncc1` was -6.58%.
Consider `COc1ccc(NC(=S)NC(=O)/C=C/c2ccc(F)cc2)cc1`, for which the “hERG current change (%, negative = inhibition) at 1uM” value worked out at 12.7%.
The value for `Cc1ccc(/C=C/C(=O)NCCCN2CCN(CCCNC(=O)/C=C/c3ccc(C)cc3)CC2)cc1` was 7.32%; that for `Nc1nonc1-n1nnc(C(=O)N/N=C/c2ccc(OCc3ccccc3F)cc2)c1CN1CCCCC1` was 9.52%.
As to `Cn1cnnc1SCc1ccc(C(=O)n2ncc(C#N)c2N)cc1`, the “hERG current change (%, negative = inhibition) at 1uM” value came to 14.3%.
With `Cc1cccc(OCC(=O)NCC(=O)N/N=C/c2cccnc2)c1`, the “hERG current change (%, negative = inhibition) at 1uM” value turned out to be 9.02%.
The value for `CC(=O)Nc1cc(S(=O)(=O)Nc2ccc(C)cc2)c(C)cc1C` was 6.6%.
For the molecule `C/C(=N/OC(=O)CC(C)C)c1cc(-c2ccc(Cl)cc2)no1`, the “hERG current change (%, negative = inhibition) at 1uM” value worked out at 10.9%.
As for `N#Cc1ccc(C(=O)CSc2nnc(-c3ccc(C(F)(F)F)cn3)s2)cc1`, the “hERG current change (%, negative = inhibition) at 1uM” value was determined as 12.8%.
The value for `CC1CN(CCC(=O)Nc2ccccc2F)CC(C)O1` (stereo not drawn) was 11.7%; that for `Cc1cc(C(=O)N2CCCC(N3CCN(Cc4ccc5c(c4)OCO5)CC3)C2)n[nH]1` (stereo not drawn) was 10.4%; that for `COc1ccccc1C(=O)NCCC(=O)NCC1CCCO1` (stereo not drawn) was -7.27%.
Consider `Cc1cccc(NC(=O)CN2CCc3cc4c(cc3C2C)OCCCO4)c1` (stereo not drawn), for which the “hERG current change (%, negative = inhibition) at 1uM” value is given as 11.2%.
In the case of `CC(=O)c1ccc(OCc2ccc(Oc3c(Cl)cccc3[N+](=O)[O-])cc2)cc1` it was 13.6%.
In the case of `Cn1c(=O)c2c(nc(SCC(=O)Nc3ccccc3N3CCCCC3)n2C)n(C)c1=O` it was -5.72%; in that of `COc1ccc(-n2nc([N+](=O)[O-])c(=NC3CCN(Cc4ccccc4)CC3)n2O)cc1`, -6.46%; in that of `O=C(OCC(=O)N1CCCc2ccccc21)c1ccc(Br)o1`, 9.32%.
Turning to `CC(CCc1ccccc1)NC(=O)COC(=O)c1ccc(S(C)(=O)=O)c([N+](=O)[O-])c1` (stereo not drawn), the “hERG current change (%, negative = inhibition) at 1uM” value is reported as -10.4%.
Regarding `CCOC(=O)C1CCN(C(=O)C2CCN(S(=O)(=O)c3c(C)noc3C)CC2)CC1`, the “hERG current change (%, negative = inhibition) at 1uM” value came out at 3.07%.
In the case of `CN(C)CCCn1c(NC(=O)C2CCCCC2)nc2ccccc21` it was 0.162%; in that of `CCOCCCNC(=O)Cn1ncc2c(=O)oc3ccccc3c21`, 0.347%; in that of `CCOC(=O)[C@@H]1[C@H]2COc3ccc(Br)cc3[C@H]2N2C(=O)N(c3cccc(F)c3)C(=O)[C@]12C`, 2.36%.
Take `CN(NS(C)(=O)=O)c1c(C#N)c(C(F)(F)F)nn1C`: the “hERG current change (%, negative = inhibition) at 1uM” value turned out to be 3.87%.

The record behind these values is PMC4336329 (PLoS ONE, 2015).
